Some of the results follow.
target: T1, OsWOX13 (Oryza sativa, UniProt Q5QMM3 1-267); experiment: protein-binding microarray (RPBM); PBS, 2% BSA, 51.3 ng/ul salmon testes DNA, 50 uM zinc acetate, 200 nM TF, 25 C, 1 h; high values mean tight binding; details: protein: recombinant; tags: N-terminal polyhistidine and DsRed monomer fusion (pET32a); label: CyDye5-dUTP incorporated in the synthesized complementary strand; 3' TTTTT single-stranded linker to array surface; dsDNA, one strand shown
T1 sequence: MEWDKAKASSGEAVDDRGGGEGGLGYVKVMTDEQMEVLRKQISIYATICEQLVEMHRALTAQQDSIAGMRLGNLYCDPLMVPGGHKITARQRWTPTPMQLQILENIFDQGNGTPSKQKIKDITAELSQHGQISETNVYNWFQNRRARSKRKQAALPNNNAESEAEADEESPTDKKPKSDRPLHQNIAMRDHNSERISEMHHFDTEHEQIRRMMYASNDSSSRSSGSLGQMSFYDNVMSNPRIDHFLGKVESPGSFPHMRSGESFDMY
Summary of the method: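 Transcription factors were made in E. coli BL21-CodonPlus as N-terminal fusions to a polyhistidine tag and DsRed, then purified on Ni–NTA. After primer extension with Cy5-dUTP and blocking with 2% BSA, a custom Agilent array was exposed for 1 h at 25 °C to 200 nM protein in PBS, 2% BSA, salmon testes DNA and 50 µM zinc acetate. Washed arrays were scanned on an Axon 4000B, and the binding signal is per-feature fluorescence intensity in arbitrary units.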

| Sequence | binding signal |
| --- | --- |
| GAGAAACGGTAAGATTGACGGATTGGTGGGAATTATATATCGGAGTCACCTAGTGCAG | 6420 fluorescence intensity (a.u.) |
| TGGCCTAATGATTTAGTAGAGTTTGCACCCTGCAATCGGTCGGAGTCACCTAGTGCAG | 6530 fluorescence intensity (a.u.) |
| AGGGAATGATTGTTTGAACACACTAAAACTTACGGTTTGCCGGAGTCACCTAGTGCAG | 22300 fluorescence intensity (a.u.) |
| CATCTGATTTACACTGAATACACTTTTACTTCAACATGTACGGAGTCACCTAGTGCAG | 14600 fluorescence intensity (a.u.) |
| TTAAATGACATGCCAAAGTTACCTTCGTTTTGTTCTAAGTCGGAGTCACCTAGTGCAG | 3270 fluorescence intensity (a.u.) |
| AATCCATAATTAGAGAATGTTTACTGTAGCATCACATAGGCGGAGTCACCTAGTGCAG | 15900 fluorescence intensity (a.u.) |
| ACACAACTTGTTAATTTGACCTGTAGCCCCATCATGTACACGGAGTCACCTAGTGCAG | 3150 fluorescence intensity (a.u.) |
| TTTGATTATTTGATCTTTGTTCTTCGTGCAGGTTTGAAAACGGAGTCACCTAGTGCAG | 18900 fluorescence intensity (a.u.) |
| AAAATAGACAGACGGCAAGTTGTACACACATATCCAGGGGCGGAGTCACCTAGTGCAG | 20700 fluorescence intensity (a.u.) |
| ACATCTCACCGTCAATCTTGTTTTCACGGTACATAATTTGCGGAGTCACCTAGTGCAG | 4610 fluorescence intensity (a.u.) |
| GCTGATAAGATGTTGATTTGCATGGATTAAGCTATGATTGCGGAGTCACCTAGTGCAG | 28900 fluorescence intensity (a.u.) |
| TCACTCATTGGAATTAATTAATGTTTTATGTAGTGGTTTTCGGAGTCACCTAGTGCAG | 21900 fluorescence intensity (a.u.) |
| ACCAGATTGCTTTTATATCCATTAGCCCACATGCAAGCAACGGAGTCACCTAGTGCAG | 11900 fluorescence intensity (a.u.) |
| ACGAGCCTAATTGTGTGTAACTTTAGAATAAATTAGTATCCGGAGTCACCTAGTGCAG | 12200 fluorescence intensity (a.u.) |
| CCGCCGCATCCTCGAATCCAATCATTCAATCAAGGAGGAGCGGAGTCACCTAGTGCAG | 16600 fluorescence intensity (a.u.) |
| CCCATGATTGATGAGACTTCAGAGCATGTACTGTAGTGGTCGGAGTCACCTAGTGCAG | 43800 fluorescence intensity (a.u.) |
| GGTGATTTTAGCTGACGTAGCGCCTATATGTATGTTTTGACGGAGTCACCTAGTGCAG | 10200 fluorescence intensity (a.u.) |
| TCACTGTTATTTAATTATATATATATATATATATTCATGCCGGAGTCACCTAGTGCAG | 8880 fluorescence intensity (a.u.) |
| TGTAGATGAAATAATTAATAGATAAAGTAGTGAGATACATCGGAGTCACCTAGTGCAG | 7990 fluorescence intensity (a.u.) |
| TTCCACGTAGTCAATCATTAAGGTTGGACTGAAACGTAATCGGAGTCACCTAGTGCAG | 10300 fluorescence intensity (a.u.) |
| TGTGAGATGACCAGCGAGTGATTGGTAAACTGTTTCAGTGCGGAGTCACCTAGTGCAG | 17600 fluorescence intensity (a.u.) |
| AGTGATTAGTAGCAGCAGAAAGAGTGGAAGATTTAGAGGACGGAGTCACCTAGTGCAG | 17800 fluorescence intensity (a.u.) |
| AATACACTAAAATTACATATGTAATTTAGGGACTTACAATCGGAGTCACCTAGTGCAG | 3220 fluorescence intensity (a.u.) |
| AACTTCGATCAATCAATCTTCAGTAGAAACCAGCACACCTCGGAGTCACCTAGTGCAG | 26900 fluorescence intensity (a.u.) |
| TAAAATAATTAATACTCAATTAATAATACGCTAATAGCCCCGGAGTCACCTAGTGCAG | 32700 fluorescence intensity (a.u.) |
| TGAATATGTCCCAAATTAATTGTCACAATGGAGTACTAATCGGAGTCACCTAGTGCAG | 3200 fluorescence intensity (a.u.) |
| TGTAACAAACCCTAATCAACATATTCTCGTGACTGGAGGGCGGAGTCACCTAGTGCAG | 8690 fluorescence intensity (a.u.) |

| Sequence | binding signal |
| --- | --- |
| TGTCACTTATTTAATTTACTTTGCTTTATACTCCTTCCGTCGGAGTCACCTAGTGCAG | 5350 fluorescence intensity (a.u.) |
| TACAGATCTATCATGCTTTAAGATTGGTGAGGATACATGTCGGAGTCACCTAGTGCAG | 3720 fluorescence intensity (a.u.) |
| TTGATTTATTGGTAGATTTGCAAATTGCAATGGAGAAGAACGGAGTCACCTAGTGCAG | 33200 fluorescence intensity (a.u.) |
| TTGTATAAATTTATAATGCTCTTGAGCGCGTTTGGTTCCTCGGAGTCACCTAGTGCAG | 7920 fluorescence intensity (a.u.) |
| GAGAATTGAAAGACATGAAAATTCTCAATTCTCTATGACGCGGAGTCACCTAGTGCAG | 13600 fluorescence intensity (a.u.) |
| ATTTATCACAATCAAAATCAAATCAAACCGAAAAGGGAAGCGGAGTCACCTAGTGCAG | 9210 fluorescence intensity (a.u.) |
| AACTGATATGTAGGGTATGATTGTAATGAAATTACGATTGCGGAGTCACCTAGTGCAG | 10700 fluorescence intensity (a.u.) |
| CAAATTGACAACCAGACTGACAAAATTTATAAATAAATGGCGGAGTCACCTAGTGCAG | 24000 fluorescence intensity (a.u.) |
| CTGTATTCATTAGGGTGGGACTGTATACTATAGTTATTATCGGAGTCACCTAGTGCAG | 4450 fluorescence intensity (a.u.) |
| GGTGATTGCATTTGATTGGGTGGAAAAGGTTTGATTTTGTCGGAGTCACCTAGTGCAG | 64900 fluorescence intensity (a.u.) |
| TACTCTGACATGAATTGGTAATTTTATATAGGCTTTATCTCGGAGTCACCTAGTGCAG | 7070 fluorescence intensity (a.u.) |
| CCTGATGGATTCAGACTTCAAGTCTGCGACCAGTGTAAAACGGAGTCACCTAGTGCAG | 9800 fluorescence intensity (a.u.) |
| CGTCTAATTAAGCGTAGACGATCTGATTCGCTAGCTCGCACGGAGTCACCTAGTGCAG | 10600 fluorescence intensity (a.u.) |
| CATATATGAGAATTAGGAAGTAATTACTTACCTACTAGGACGGAGTCACCTAGTGCAG | 4260 fluorescence intensity (a.u.) |
| GTAGATTAATAGCAAAATAAATTATAGATTTTACCTGCACCGGAGTCACCTAGTGCAG | 25800 fluorescence intensity (a.u.) |
| CTCCTTGACTAATGTTGCGTTCTCTAATCTCCCTCTGACTCGGAGTCACCTAGTGCAG | 3360 fluorescence intensity (a.u.) |
| GCCCTAAATAAAATTGGTAGATCTCAATTAGTTCTACAACCGGAGTCACCTAGTGCAG | 5020 fluorescence intensity (a.u.) |
| ATAATTGGGCCCATCCTGTCTCCTTCCTTCCTCTCTACCCCGGAGTCACCTAGTGCAG | 13300 fluorescence intensity (a.u.) |
| TCTTCATTAATTGAAGTTGGGACTTTAATAATCTTGTAATCGGAGTCACCTAGTGCAG | 23300 fluorescence intensity (a.u.) |
| TGTAACTATTATATAAATTGGCTATTAAGTTTGACTATAGCGGAGTCACCTAGTGCAG | 17800 fluorescence intensity (a.u.) |
| TTCTTAATGAACAGGTTGATTTGGAACTCATTGCGAAGGACGGAGTCACCTAGTGCAG | 23500 fluorescence intensity (a.u.) |
| GAAGATTGAAACATACGCACGCTGAAACGCCGTAACTCTGCGGAGTCACCTAGTGCAG | 27700 fluorescence intensity (a.u.) |
| CATTTAATTCATTGTTATATATATATATATATAGACACACCGGAGTCACCTAGTGCAG | 3920 fluorescence intensity (a.u.) |
| CATAAAATAACAACTAATTTAACTCAAACCCCTAGCAATTCGGAGTCACCTAGTGCAG | 3760 fluorescence intensity (a.u.) |
| CTTATATATATTCAATTACTGAGCAGCGCAACCGCGGAGACGGAGTCACCTAGTGCAG | 4040 fluorescence intensity (a.u.) |
| AGAGATTGAACAGAGCTATGAAGAATTTTATGAAGATGTGCGGAGTCACCTAGTGCAG | 7740 fluorescence intensity (a.u.) |
| TACCATGATTTGTATTGTGCGATATATTGAGTGGGGCCATCGGAGTCACCTAGTGCAG | 28500 fluorescence intensity (a.u.) |
